# According to the supplement of paper PMC8728848:
# The other results are listed elsewhere or left out.
# B1: chitinase 3-like protein 2 (Homo sapiens) (protein)
# chain: YKLVCYFTQWSQDRQEPGKFTPENIDPFLCSHLIYSFASIENNKVIIKDKSEVMLYQTINSLKTKNPKLKILLSIGGYLFGSKGFHPMVDSSTSRLEFINSIILFLRNHNFDGLDVSWIYPDQKENTHFTVLIHELAEAFQKDFTKSTKERLLLTAGVSAGRQMIDNSYQVEKLAKDLDFINLLSFDFHGSWEKPLITGHNSPLSKGWQDRGPSSYYNVEYAVGYWIHKGMPSEKVVMGIPTYGHSFTLASAETTVGAPASGPGAAGPITESSGFLAYYEICQFLKGAKITRLQDQQVPYAVKGNQWVGYDDVKSMETKVQFLKNLNLGGAMIWSIDMDDFTGKSCNQGPYPLVQAVKRSLGSL
# Key:
# Assay in all cases: glycan array binding signal (z-score within array); higher = stronger binding
# Settings in all cases: glycan notation: IUPAC condensed, linker removed
# [1] = molecular target: GlcNAc(b1-2)Gal(b1-3)GlcNAc
# In short: (§1)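 The Consortium for Functional Glycomics database supplied 3228 glycan arrays, of which those lacking an available protein sequence were dropped. The binding signal, a within-array Z-score, was averaged across arrays of the same protein sequence and across linkers. Negative scores can be read as non-binding.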
# [2] = molecular target: GlcNAc(b1-2)Man(a1-3)[GlcNAc(b1-2)Man(a1-6)]Man(b1-4)GlcNAc(b1-4)GlcNAc
# In short: as §1
# GlcNAc(b1-3)Gal = molecular target: GlcNAc(b1-3)Gal
# In short: as §1
# [3] = molecular target: GlcNAc(b1-3)Gal(b1-3)GalNAc
# In short: as §1
# GlcNAc(b1-3)Gal(b1-4)Glc = molecular target: GlcNAc(b1-3)Gal(b1-4)Glc
# In short: as §1
# [4] = molecular target: GlcNAc(b1-3)Gal(b1-4)GlcNAc
# In short: as §1
# [5] = molecular target: GlcNAc(b1-3)Gal(b1-4)GlcNAc(b1-3)Gal(b1-4)GlcNAc
# In short: as §1
# GlcNAc(b1-3)GalNAc = molecular target: GlcNAc(b1-3)GalNAc
# In short: as §1
# [6] = molecular target: GlcNAc(b1-3)[GlcNAc(b1-4)][GlcNAc(b1-6)]GlcNAc
# In short: as §1
# [7] = molecular target: GlcNAc(b1-3)[GlcNAc(b1-6)]Gal(b1-4)GlcNAc
# In short: as §1
# [8] = molecular target: GlcNAc(b1-3)[GlcNAc(b1-6)]GlcNAc
# In short: as §1
# [9] = molecular target: GlcNAc(b1-4)Gal(b1-4)GlcNAc
# In short: as §1
# [10] = molecular target: GlcNAc(b1-4)GlcNAc(b1-4)GlcNAc
# In short: as §1
# [11] = molecular target: GlcNAc(b1-4)GlcNAc(b1-4)GlcNAc(b1-4)GlcNAc(b1-4)GlcNAc
# In short: as §1
# [12] = molecular target: GlcNAc(b1-4)GlcNAc(b1-4)GlcNAc(b1-4)GlcNAc(b1-4)GlcNAc(b1-4)GlcNAc
# In short: as §1
# [13] = molecular target: GlcNAc(b1-4)[GlcNAc(b1-6)]GalNAc
# In short: as §1
# [14] = molecular target: GlcNAc(b1-6)Gal(b1-4)GlcNAc
# In short: as §1
# GlcNAc(b1-6)GalNAc = molecular target: GlcNAc(b1-6)GalNAc
# In short: as §1
# Kdn(a2-3)Gal(b1-3)GlcNAc = molecular target: Kdn(a2-3)Gal(b1-3)GlcNAc
# In short: as §1
# Kdn(a2-3)Gal(b1-4)GlcNAc = molecular target: Kdn(a2-3)Gal(b1-4)GlcNAc
# In short: as §1
# [15] = molecular target: Man(a1-2)Man(a1-2)Man(a1-3)Man
# In short: as §1
# [16] = molecular target: Man(a1-2)Man(a1-2)Man(a1-3)[Man(a1-2)Man(a1-3)[Man(a1-2)Man(a1-6)]Man(a1-6)]Man(b1-4)GlcNAc(b1-4)GlcNAc
# In short: as §1
# [17] = molecular target: Man(a1-2)Man(a1-2)Man(a1-3)[Man(a1-2)Man(a1-6)[Man(a1-3)]Man(a1-6)]Man(b1-4)GlcNAc(b1-4)GlcNAc
# In short: as §1
# [18] = molecular target: Man(a1-2)Man(a1-2)Man(a1-6)[Man(a1-3)]Man
# In short: as §1
# Man(a1-2)Man(a1-3)Man = molecular target: Man(a1-2)Man(a1-3)Man
# In short: as §1
# [19] = molecular target: Man(a1-2)Man(a1-3)[Man(a1-2)Man(a1-6)]Man
# In short: as §1
# [20] = molecular target: Man(a1-2)Man(a1-3)[Man(a1-3)[Man(a1-6)]Man(a1-6)]Man(b1-4)GlcNAc(b1-4)GlcNAc
# In short: as §1
# [21] = molecular target: Man(a1-2)Man(a1-3)[Man(a1-6)]Man(a1-6)[Man(a1-2)Man(a1-3)]Man(b1-4)GlcNAc(b1-4)GlcNAc
# In short: as §1
# Man(a1-3)[Man(a1-6)]Man = molecular target: Man(a1-3)[Man(a1-6)]Man
# In short: as §1
# [22] = molecular target: Man(a1-3)[Man(a1-6)]Man(a1-6)[Man(a1-3)]Man(b1-4)GlcNAc(b1-4)GlcNAc
# In short: as §1
# [23] = molecular target: Man(a1-3)[Man(a1-6)]Man(b1-4)GlcNAc(b1-4)GlcNAc
# In short: as §1
# Man(b1-4)GlcNAc = molecular target: Man(b1-4)GlcNAc
# In short: as §1
# Neu5Ac(a2-3)Gal = molecular target: Neu5Ac(a2-3)Gal
# In short: as §1
# [24] = molecular target: Neu5Ac(a2-3)Gal(b1-3)GalNAc
# In short: as §1
# [25] = molecular target: Neu5Ac(a2-3)Gal(b1-3)GalNAc(b1-3)Gal(a1-4)Gal(b1-4)Glc
# In short: as §1
# [26] = molecular target: Neu5Ac(a2-3)Gal(b1-3)GalNAc(b1-4)[Neu5Ac(a2-3)]Gal(b1-4)Glc
# In short: as §1
# [27] = molecular target: Neu5Ac(a2-3)Gal(b1-3)GalNAc6S
# In short: as §1
binder,measurement,setting,value
B1,glycan array binding signal (z-score),[1],-0.208
same,glycan array binding signal (z-score),[2],-0.078
same,glycan array binding signal (z-score),GlcNAc(b1-3)Gal,-0.203
same,glycan array binding signal (z-score),[3],-0.22
same,glycan array binding signal (z-score),GlcNAc(b1-3)Gal(b1-4)Glc,-0.201
same,glycan array binding signal (z-score),[4],0.177
same,glycan array binding signal (z-score),[5],-0.257
same,glycan array binding signal (z-score),GlcNAc(b1-3)GalNAc,-0.268
same,glycan array binding signal (z-score),[6],-0.223
same,glycan array binding signal (z-score),[7],-0.229
same,glycan array binding signal (z-score),[8],-0.061
same,glycan array binding signal (z-score),[9],0.235
same,glycan array binding signal (z-score),[10],-0.012
same,glycan array binding signal (z-score),[11],7.67
same,glycan array binding signal (z-score),[12],9.06
same,glycan array binding signal (z-score),[13],-0.226
same,glycan array binding signal (z-score),[14],-0.237
same,glycan array binding signal (z-score),GlcNAc(b1-6)GalNAc,-0.222
same,glycan array binding signal (z-score),Kdn(a2-3)Gal(b1-3)GlcNAc,-0.247
same,glycan array binding signal (z-score),Kdn(a2-3)Gal(b1-4)GlcNAc,-0.216
same,glycan array binding signal (z-score),[15],-0.12
same,glycan array binding signal (z-score),[16],0.514
same,glycan array binding signal (z-score),[17],0.124
same,glycan array binding signal (z-score),[18],-0.22
same,glycan array binding signal (z-score),Man(a1-2)Man(a1-3)Man,-0.268
same,glycan array binding signal (z-score),[19],-0.231
same,glycan array binding signal (z-score),[20],-0.257
same,glycan array binding signal (z-score),[21],0.235
same,glycan array binding signal (z-score),Man(a1-3)[Man(a1-6)]Man,-0.22
same,glycan array binding signal (z-score),[22],0.17
same,glycan array binding signal (z-score),[23],0.216
same,glycan array binding signal (z-score),Man(b1-4)GlcNAc,-0.265
same,glycan array binding signal (z-score),Neu5Ac(a2-3)Gal,-0.255
same,glycan array binding signal (z-score),[24],-0.221
same,glycan array binding signal (z-score),[25],-0.268
same,glycan array binding signal (z-score),[26],-0.053
same,glycan array binding signal (z-score),[27],-0.271
